Measurements published in PubChem BioAssay AID1454 (National Center for Advancing Translational Sciences (NCATS), 2008).
Screen size: about 130,000 compounds; about 550 (0.42%) were called active. This list was built around the results that the source calls inconclusive (neither active nor inactive); the mix of calls is not that of the screen. The call rests on the fitted dose curve; in most records, active means well fitted inhibition curve with a large enough effect; inconclusive means small, poorly fitted or top-dose-only effect, or effect the other way; inactive means flat fitted curve, though single readings scatter. No potency is given beside an inconclusive call; the fits are too rough.

Experiment: qHTS Assay for Inhibitors of the ERK Signaling Pathway using a Homogeneous Screening Assay; Stimulation with EGF; further: nearly all actives have a fitted effect of over 55% in size;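 on activity change, negative = inhibition: plate controls were stimulated vehicle wells for no effect and unstimulated vehicle basal for full effect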
Settings: HEK293-V1b, EGF-stimulated phospho-ERK AlphaScreen; activity change, negative = inhibition: at the top concentration
How it was run: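 HEK293 cells stably expressing V1b receptor, serum-reduced (1% FBS) overnight, pretreated 30 min with compound, then stimulated 5 min with 25 nM EGF; phospho-ERK detected by AlphaScreen SureFire. AC50 from Hill fits, normalized to DMSO and EGF.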
Potency means the concentration at half of the fitted maximal effect; tags describe the fitted curve by direction and shape.

Structure (SMILES) | Potency | activity change, negative = inhibition
O=C(NC(=S)Nc1ccccc1N1CCCC1)c1cccc(F)c1 | inconclusive [inhibitor, single point] | 
CCCN1C(=O)S/C(=C/c2ccc(N3CCOCC3)o2)C1=O | inconclusive [inhibitor, partial curve, poor fit] | 
CCN(CC)c1ccc(/C=C(\C#N)C(=O)NCc2ccccc2)cc1 | inconclusive [activator, single point] | 
COC(=O)c1cc(OC)c(OC)cc1NC(=S)N1CCCC1 |  | inactive: -23.5%
COc1cc(OC)c(-c2c3cc(O)c(=O)cc-3oc3cc(O)c(O)cc23)cc1OC | active: 15.8 µM | 
O=C(c1cccs1)n1nc(-c2cccnc2)nc1NCc1ccco1 | inconclusive [inhibitor, single point] | 
CN(Cc1ccco1)c1ncnc2ccc(-c3ccc4c(c3)OCO4)cc12 |  | inactive: 22.8%
CC(C)(C)NC(=O)NC(=O)COc1ccc(Br)cc1Br | inconclusive [inhibitor, single point] | 
O=C(O)c1ccc(OCC(F)(F)F)nc1 |  | inactive: 4.69% [at 57.5 µM]
O=C(CSc1n[nH]c(=O)n1C1CC1)NCc1ccccc1 | inconclusive [activator, full curve] | 
NC(=NC(=O)c1cccc(C(F)(F)F)c1)c1ccc(C(F)(F)F)cn1 | inconclusive [inhibitor, single point] | 
O=c1[nH]c(CN2CCN(S(=O)(=O)c3cccs3)CC2)nc2c(Br)cc(Br)cc12 | inconclusive [inhibitor, single point] | 
NC(=O)CC(NC(=O)c1ccccc1)c1ccc(NCCc2ccc(F)cc2)c([N+](=O)[O-])c1 (configuration not stated) | inconclusive [inhibitor, partial curve] | 
O=C(CCSc1ccc(Cl)cc1)N1CCN(c2ccc(O)cc2)CC1 | inconclusive [inhibitor, single point] | 
Cc1ccc2oc(=O)c3cnn(CC(=O)N(CCCN4CCOCC4)Cc4ccco4)c3c2c1 | inconclusive [inhibitor, single point] | 
CC(C)CC(=O)NC(=S)Nc1cccc2nsnc12 |  | inactive: -11.4%
NCCCC(O)(P(=O)(O)O)P(=O)(O)O |  | inactive: -3.55%
COC(=O)c1cc(C(=O)N2CCN(c3cccc(C)c3C)CC2)cc([N+](=O)[O-])c1 | inconclusive [inhibitor, partial curve] | 
O=C(Nc1ccc(CN2CCCCC2)cc1)c1sc2ccccc2c1Cl | inconclusive [inhibitor, partial curve] | 
CCCC(=O)N1CCN(c2ccc(NC(=O)c3ccc([N+](=O)[O-])o3)cc2)CC1 |  | inactive: 11%
Cc1ccc(F)cc1NC(=O)N1CCN(C2c3ccccc3-c3ccccc32)CC1 | inconclusive [inhibitor, single point] | 
COc1cc(C(=O)OC2CC[C@]3(C)C4CCC5[C@]6(O)CC(O)[C@]7(O)C(CN8CC(C)CCC8[C@]7(C)O)[C@]6(O)C[C@@]53O[C@]24O)cc(OC)c1OC (some centres not stated) |  | inactive: 34.8%
CC1CCC(C(C)C)C(OC(=O)Cn2c(-c3ccc(F)cc3)[n+](C)c3ccccc32)C1 (configuration not stated) | inconclusive [inhibitor, single point] | 

Structure (SMILES) | Potency | activity change, negative = inhibition
Cc1ccc2nc(Cl)c(/C=N/NC(=O)c3ccccc3O)cc2c1 | inconclusive [inhibitor, single point] | 
CC(C)(C)C1C/C(=C/c2ccccn2)C(=O)/C(=C/c2ccccn2)C1 (configuration not stated) | inconclusive [inhibitor, single point] | 
Cc1cc(/C=N/NC(N)=S)c(C)n1-c1ccc(Cl)c(Cl)c1 | inconclusive [inhibitor, single point] | 
CCCC(=O)N1CCN(c2ccc(NC(=S)NC(=O)c3cccc(C)c3)cc2)CC1 | inconclusive [inhibitor, single point] | 
COc1ccc(C(Nc2cc(C)ccn2)c2ccc3ccc(C)nc3c2O)cc1 (configuration not stated) | inconclusive [inhibitor, single point] | 
COC(=O)c1ccc(C(NC(=O)OCc2ccccc2)/C(=C/[C@@H](C)C(=O)N(C)C)c2cccnc2)cc1 (some centres not stated) |  | inactive: -6.34%
COc1cc(Nc2ccccn2)cc(C(=O)Nc2cccc(C(F)(F)F)c2)c1 | inconclusive [inhibitor, partial curve] | 
Cc1cccc(N2CCN(C(=O)C3CCN(c4nnc(-n5cccc5)s4)CC3)CC2C)c1 (configuration not stated) | inconclusive [inhibitor, single point] | 
C=C(C)COc1ccc(-c2n[nH]c(C)c2-c2ccc(OC)c(OC)c2)c(O)c1 |  | inactive: -8.61% [at 57.5 µM]
CCCOc1ccc(CN2CCOCC2)cc1OC |  | inactive: 4.02% [at 57.5 µM]
CN(C)c1ccc([C@@H]2[C@@H]([N+](=O)[O-])[C@H]3C=Cc4ccccc4N3[C@H]2C(=O)c2ccc(Cl)cc2)cc1 | inconclusive [inhibitor, partial curve] | 
O=C(CSc1ccccc1)Nc1cc(Cl)ccc1Oc1ccccc1 | inconclusive [activator, single point] | 
CNC(=O)Nc1cccc(-c2cc(-c3c(Cl)cccc3Cl)no2)c1 | inconclusive [inhibitor, single point] | 
CCOC(=O)c1nnc2c(Br)c(-c3ccccc3)nn2c1C | inconclusive [inhibitor, single point] | 
COc1ccc(C(=O)/C=C/c2ccc(N3CCCCC3)c([N+](=O)[O-])c2)c(OC)c1 | inconclusive [inhibitor, partial curve] | 
Clc1nc(Nc2ccc(N3CCOCC3)cc2)c2ccccc2n1 | inconclusive [inhibitor, single point] | 
C=CCOC(=O)C1(C(NC(=O)OC)c2ccccc2)C(=O)Cc2ccccc21 (configuration not stated) |  | inactive: 4.79%
CC(=O)c1cnn(-c2c(Cl)cc(Cl)cc2Cl)c1C | inconclusive [inhibitor, partial curve, poor fit] | 
O=c1c(-c2ccccc2)nc2cnc(N3CCOCC3)nc2n1-c1ccccc1 | inconclusive [activator, partial curve] | 
Cc1ccc(-c2nc3cc(Br)cnc3nc2-c2ccc(C)cc2)cc1 | inconclusive [inhibitor, partial curve] | 
COc1ccc(C2CC(c3ccc([N+](=O)[O-])cc3)=NN2C(=O)c2ccccc2)cc1OC (configuration not stated) | inconclusive [inhibitor, partial curve, poor fit] | 
CCCCCC(O)c1cccc(OCc2ccc3ccccc3n2)c1 (configuration not stated) | inconclusive [inhibitor, single point] | 
CC(C)N(C(=O)COC(=O)c1ccccc1C(=O)c1ccc(Cl)c([N+](=O)[O-])c1)C(C)C |  | inactive: 4.22%

Structure (SMILES) | Potency | activity change, negative = inhibition
CC1=NNC(=O)C1CC(=O)N/N=C/C=C/c1ccccc1 (configuration not stated) | inconclusive [inhibitor, partial curve] | 
O=C1C=CC2=C3c4cc(O)c(O)cc4C[C@@]3(O)COC2=C1 |  | inactive: 0.653%
N#C/C(=C\c1ccc(F)c(Cl)c1)S(=O)(=O)c1ccccn1 | inconclusive [inhibitor, single point] | 
Cc1ccc(C)c(NC(=S)N/N=C2/CCCCc3ccccc32)c1 | inconclusive [inhibitor, single point] | 
CC1CCN(S(=O)(=O)c2cccc(C(=O)N(Cc3ccccc3)c3ccccn3)c2)CC1 |  | inactive: 2.02%
O=Cc1ccc(-n2cccn2)cc1 | inconclusive [inhibitor, single point] | 
CCCCC/C=C\C/C=C\C/C=C\C=C\C(O)CCCC(=O)O (configuration not stated) |  | inactive: -8.7%
C[C@@H](C(=O)O)c1ccc(C(=O)c2ccccc2)s1 |  | inactive: -1.34% [at 25.7 µM]
CCN(CC)c1ccc(/C=N/NC(=O)Nc2nonc2N)cc1 | inconclusive [inhibitor, single point] | 
CCCc1c(C(=O)Nc2cc(C(C)(C)C)on2)cnn1-c1ccccc1 | inconclusive [inhibitor, partial curve] | 
CCCn1nc(NC(=O)c2cccs2)c2cc3cc(C)ccc3nc21 | inconclusive [activator, single point] | 
COC(=O)/C(=C\C(=O)c1ccc([N+](=O)[O-])cc1)Nc1ccc(OC)cc1 | active: 12.6 µM | 
CCCCN(C(=O)CNC(=O)c1cccs1)C(C(=O)NC1CCCC1)c1ccncc1 (configuration not stated) | inconclusive [inhibitor, partial curve] | 
COc1ccc(N=Nc2ccc(O)c3ncccc23)cc1 | inconclusive [inhibitor, partial curve] | 
CC12CCC(=O)N1C(C(=O)OCC(=O)Nc1ccc(Cl)c(Cl)c1)CS2 (configuration not stated) |  | inactive: -2.49%
N#CCC(=O)N/N=C/c1cn(Cc2ccccc2C#N)c2ccccc12 | inconclusive [inhibitor, single point] | 
NCC1OC(O[C@@H]2[C@H](O)[C@@H](OC3C(O)C(N)CC(N)C3OC3OC(CO)C(O)C(O)C3N)O[C@@H]2CO)C(N)C(O)C1O (some centres not stated) |  | inactive: -2.21%
C=CSc1sc(Cl)c(N2CCOCC2)c1[N+](=O)[O-] | inconclusive [inhibitor, partial curve] | 
Cc1ccc(O)c(C(=O)c2cnc3c(c2)COc2ccccc2-3)c1 | inconclusive [inhibitor, partial curve] | 
O=C(NCCc1nc(-c2ccccc2)cs1)c1ccc(Br)cc1 | inconclusive [inhibitor, single point] | 
O=[N+]([O-])c1cc(Cl)ccc1N1CCCC1 | inconclusive [inhibitor, partial curve] | 
